PubChem BioAssay AID1508642 (National Center for Advancing Translational Sciences (NCATS), 2021)
Out of some 43,000 compounds screened, about 200 (0.47%) were called active. Inconclusive results (about 12%) are left out. Calls come from the whole dose curve; as a rule, active = well fitted cell-killing curve with a large enough effect; inconclusive = small, poorly fitted or top-dose-only effect, or effect the other way; inactive = flat fitted curve, though single readings scatter. This is one part of the list.

experiment: Cell viability qHTS assay in S16 Pmp22-F2sN cells; settings: S16 Pmp22-F2sN Schwann cells viability, CellTiter-Glo, 24 h; series mostly up to 57.5 µM; activity change, negative = cytotoxicity: at the top concentration; note: nearly all actives have a fitted effect of over 65% in size
Summary of the method: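 S16 Pmp22-F2sN Schwann cells (500-1,000/well) in phenol-red-free DMEM with 10% FBS received 23 nL compound by pin tool for 24 h at 37 °C. Viability was then read as CellTiter-Glo luminescence after 15 min at room temperature.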
% is set by controls: 0 for no effect and ±100 for the full control effect; potency is the fitted concentration of half-maximal effect.

Row | Structure (SMILES) | activity change, negative = cytotoxicity | Potency
1 | Cc1ccccc1C(=O)Nc1nnc2n1CCS2 | inactive: 6.33% | –
2 | CCN1C(=O)c2ccccc2S(=O)c2ccc(C(=O)NCc3ccc(OC)cc3)cc21 (configuration not stated) | inactive: 1.05% | –
3 | Cc1ccc(C)c2sc(NC(=O)c3ccc(S(=O)(=O)N4CCC(C)CC4)cc3)nc12 | inactive: -14.9% | –
4 | O=C(CSc1nc2cc(C(=O)NC3CCCC3)ccc2c(=O)n1CC1CCCO1)c1cccc(Cl)c1 (configuration not stated) | – | active: 28.2 µM
5 | COc1ccccc1NC(=O)CSc1nnc(N)s1 | inactive: -1.49% | –
6 | COc1ccc(OC)c(CCNC(=O)CS(=O)(=O)Cc2nc(-c3cccc(Cl)c3)oc2C)c1 | inactive: -1.99% | –
7 | COc1ccc(CCNc2oc(/C=C/c3cc(OC)c(OC)c(OC)c3)nc2C#N)cc1OC | inactive: -18.3% | –
8 | Cc1ccc(Sc2c(C)nn(-c3ccccc3)c2OC(=O)C(C)(C)C)cc1 | inactive: -17.3% | –
9 | CCOc1ccc(NC(=O)CC2C(=O)N(c3ccc(F)cc3)C(=O)N2Cc2ccc(OC)c(OC)c2)cc1 (configuration not stated) | inactive: 10.8% | –
10 | COc1ccc(OC)c(NS(=O)(=O)c2cc3c(cc2Cl)N(C(C)=O)CCO3)c1 | inactive: -4.21% | –
11 | COC(=O)c1c(NC(=O)C(C)Oc2ccc(Cl)c(C)c2)sc(C)c1C (configuration not stated) | inactive: 0.0514% | –
12 | CCc1ccc(CNC(=O)c2cc(=O)[nH]c3ccc(S(=O)(=O)N4CCCCC4)cc23)cc1 | inactive: 13.6% | –
13 | Cc1c(Cl)ccc2sc(N3CCN(C(=O)C(C)C)CC3)nc12 | inactive: -24.4% | –
14 | CCOC(=O)c1c(C)oc2nc(C)nc(Nc3ccc(C)c(Cl)c3)c12 | inactive: -0.252% | –
15 | CCOC(=O)c1c(NC(=O)c2cc(C(C)C)on2)sc(C(C)=O)c1C | inactive: 5.03% | –
16 | CCOc1ccccc1NC(=O)NCc1ccc2c(c1)CCN2C(=O)c1ccccc1 | inactive: -27.1% | –
17 | COc1ccc(/C=C\c2onc(C)c2S(=O)(=O)N2CCC(C(=O)Nc3ccc(F)cc3F)CC2)cc1 | inactive: 8.31% | –
18 | Cc1ccc(-c2nc3nc(C)cc(N4CCN(c5cccc(C)c5C)CC4)n3n2)cc1 | inactive: -4.46% | –
19 | CN(C)c1ccc(CN(Cc2ccco2)C(=O)c2ccc(C(C)(C)C)cc2)cc1 | inactive: -15% | –
20 | Cc1oc(-c2cccc(Cl)c2)nc1CSc1nncn2c1cc1occc12 | inactive: 6.88% | –
21 | CN(Cc1ccccc1)C(=O)c1cn(C)c2ccc(S(=O)(=O)N3CCCCC3)cc2c1=O | inactive: -12.6% | –

Row | Structure (SMILES) | activity change, negative = cytotoxicity | Potency
22 | COc1cccc(OCc2nc3ccccc3n2CCOc2ccc(C)cc2)c1 | inactive: 5.6% | –
23 | COc1cccc(CNC(=O)c2cc(C)nc3c2c(C)nn3-c2ccc(C)cc2)c1 | inactive: 0.803% | –
24 | COc1ccc(OC)c(NC(=O)CSc2ccc(-c3cccs3)nn2)c1 | inactive: 3.96% | –
25 | COc1cc(OC)c(NC(=O)C2CCN(S(=O)(=O)c3c(C)noc3/C=C/c3c(C)cc(C)cc3C)CC2)cc1Cl | inactive: 1.4% | –
26 | CC12CN3CC(c4ccccc4)(CN(C1)C3c1ccc(O)cc1)C2=O (configuration not stated) | inactive: 5.01% | –
27 | Cn1c(=O)oc2cc(S(=O)(=O)NC(Cc3ccccc3)C(=O)Nc3ccc(F)cc3)ccc21 (configuration not stated) | inactive: -8.05% | –
28 | CCn1c(C(=O)NCc2ccc(F)cc2)cc2oc3ccccc3c21 | inactive: 0.433% | –
29 | CCOc1ccc(C(=O)NCc2ccc3c(c2)CCN3C(=O)c2ccc(Cl)cc2)cc1 | inactive: -1.97% | –
30 | O=C(NC1CC(=O)N(c2cccc(F)c2)C1)c1cccs1 (configuration not stated) | inactive: 1.7% | –
31 | Cc1cccc(-n2ncc(C(=O)N3CCOCC3)c2C2CCN(C(=O)OC(C)(C)C)CC2)c1 | inactive: 21.4% | –
32 | CC(C)N(C(=O)Cn1cc(SCC(=O)Nc2ccccc2F)c2ccccc21)C(C)C | inactive: -3.05% | –
33 | Cc1ccc(CCNS(=O)(=O)c2cc(-c3cc(C)no3)ccc2C)cc1 | inactive: -4.01% | –
34 | CCc1ccc(NC(=O)c2ccc(CN3CC(=O)N4CCCCC4C3=O)cc2)cc1 (configuration not stated) | inactive: -24.3% | –
35 | CC(C)C(=O)Nc1ccc2nc(SCC(=O)N3CCCC3)sc2c1 | inactive: 16.4% | –
36 | CCCN(C(=O)c1cc2c(=O)oc3ccccc3c2s1)c1ccc(CC)cc1 | inactive: -0.412% | –
37 | CCc1ccc(OCC(=O)NC(Cc2c[nH]c3ccccc23)C(=O)O)cc1 (configuration not stated) | inactive: -11% | –
38 | Cc1c(Cl)cccc1NC(=O)N1CCN(C(=O)c2nsc3ccccc23)CC1 | inactive: -8.46% | –
39 | Cc1ccccc1Nc1cc(C(=O)NCCCN2CCN(c3cccc(Cl)c3)CC2)c2ccccc2n1 | inactive: -23.2% | –
40 | CCOCCCN(Cc1ccco1)S(=O)(=O)c1cc2c(cc1Cl)NC(=O)CO2 | inactive: 7.57% | –
41 | COc1cc(NC(=O)CSc2nnc(C)n3c2cc2oc(C)cc23)cc(OC)c1 | inactive: -2.1% | –
42 | Cc1ccccc1-c1noc(-c2ccc(N3CCCCC3)c([N+](=O)[O-])c2)n1 | inactive: 3.45% | –

Row | Structure (SMILES) | activity change, negative = cytotoxicity | Potency
43 | CCOc1ccc(CCNC(=O)C2CCN(C(=O)N3CC(CC)Oc4ccccc43)CC2)cc1 (configuration not stated) | inactive: 5.84% | –
44 | CCCCN(CC)CCCNC(=O)CS(=O)(=O)Cc1nc(-c2ccc(C)cc2)oc1C | inactive: -0.57% | –
45 | CCCOc1ccc(C(=O)Nc2ccc3oc(-c4ccncc4)nc3c2)cc1 | inactive: 10.6% | –
46 | O=C(Nc1nnc(N2CCCCCC2)s1)Nc1cc(F)ccc1F | inactive: -0.062% | –
47 | CCC(Sc1nnc2c(n1)[nH]c1ccccc12)C(=O)Nc1nnc(C(C)C)s1 (configuration not stated) | inactive: 19% | –
48 | CCCCOC(=O)c1c(N)n(-c2ccc(OC)cc2OC)c2nc3ccccc3nc12 | inactive: 15.6% | –
49 | COCCN(Cc1cccs1)S(=O)(=O)c1cc(-c2cc(C)no2)ccc1C | inactive: -4.02% | –
50 | Cn1nnc2c(N3CCN(c4cccc(Cl)c4)CC3)ncnc21 | inactive: 3.49% | –
51 | COCCCNC(=O)c1c(NC(=O)Cc2coc3c(C)c(C)ccc23)sc2c1CCCC2 | inactive: -8.27% | –
52 | COc1cccc(CNC(=O)CCS(=O)(=O)c2ccc3c(c2)oc(=O)n3C)c1 | inactive: -15.3% | –
53 | CCn1nc(C)c2c(-c3ccccc3)cc(=O)n(C(C)C(=O)NCCC(C)C)c21 (configuration not stated) | inactive: 0.963% | –
54 | CC(C)c1ccc(Cn2c(COc3ccccc3)nc3ccccc32)cc1 | inactive: 1.5% | –
55 | O=C(COc1ccccc1F)Nc1ccc2nc(SCCOc3ccccc3)sc2c1 | inactive: 8.57% | –
56 | COc1ccc(NC(=O)CC2C(=O)N(c3cccc(OC)c3)C(=O)N2CCc2cccs2)cc1 (configuration not stated) | inactive: 2.41% | –
57 | Cc1ccc(NC(=O)Cn2c(=O)n(Cc3nc(-c4ccccc4)no3)c(=O)c3cc4c(cc32)OCO4)cc1F | inactive: -1.53% | –
58 | CC(=O)Nc1ccc(NC(=O)CCc2nc3cccnc3n2Cc2cccs2)cc1 | inactive: -5.15% | –
59 | Cc1ccc(C(=O)Nc2ccc3c(c2)n(C)c(=O)c(=O)n3C)cc1 | inactive: -0.697% | –
60 | CCc1ccc(OC(C)C(=O)N2CCC(c3nc4ccccc4o3)CC2)cc1 (configuration not stated) | inactive: -28.1% | –
61 | Cc1ccc(NC(=O)Cn2nc(C(=O)Nc3ccc(C)cc3)ccc2=O)cc1 | inactive: -0.387% | –
62 | CC1CCN(Cc2c(O)ccc3c(=O)c(Oc4ccccc4Cl)c(C(F)(F)F)oc23)CC1 | inactive: 17.2% | –
